Among all 46,000 compounds or so, about 60 (0.1%) were called active. Not shown: some 3% with an inconclusive outcome. The call rests on the fitted dose curve; in most records, active means well fitted inhibition curve with a large enough effect; inconclusive means small, poorly fitted or top-dose-only effect; inactive means no such curve, though single readings can be large or run the other way. The list shows a part of the results.
Assay: Primary qHTS assay for Inhibitors of ovarian cancer metastasis using an organotypic tumor microenvironment (TME) model. Further: nearly all actives have a fitted effect of over 65% in size.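 On activity change, negative = inhibition: plate controls were DMSO wells for no effect and tomatine positive control wells for full effect.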
Details: SKOV3ip1-GFP adhesion/invasion on 3D omental model, fluorescence; series mostly up to 45.8 µM; activity change, negative = inhibition: at the top concentration
How it was run: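 Adhesion/invasion was scored as fixed GFP-labeled SKOV3ip1 cell counts (488/509 nm), normalized to DMSO and tomatine controls. Cancer cells in serum-free medium, with four compound doses (0.36-46 umol/L), sat 2 hr at RT then 16 hr at 37 C on a 48 hr fibroblast/mesothelial/ECM culture.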

outcome, inactive:
O=C(c1ccc(Cl)cc1)N1CCC(c2nc3ccccc3o2)CC1
CCN1CCN(CCCNC(=O)c2cnn(-c3ccccc3Cl)c2C2CCN(C(=O)OC(C)(C)C)CC2)CC1
Cc1nn(C)c2c1c(-c1ccccc1)cc(=O)n2Cc1ccccc1C#N
CC(C)CN(CCCNC(=O)c1cc(-c2cccs2)nc2ccccc12)CC(C)C
CCCCc1nn2c(=O)cc(COC(=O)c3cccc(Cl)c3)nc2s1
Cc1cc(F)ccc1NC(=O)C1CCN(C(=O)c2cnn(-c3ccccc3)c2-n2cccc2)CC1
COCCCn1c(=N)c(C(=O)NCc2cccnc2)cc2c(=O)n3cccc(C)c3nc21
Cc1ccc(CNC(=O)CN2C(=O)CSc3c2c(C)nn3-c2ccccc2)cc1
COc1ccc(C2=C(C)C(=NCCCN3CCN(c4cc(Cl)ccc4C)CC3)NS2(=O)=O)cc1
O=C(Nc1ccc(Cl)c(C(F)(F)F)c1)c1ccc2c(c1)CCN2S(=O)(=O)c1ccccc1
O=c1c2cc3c(cc2n(Cc2ccccc2)c(=O)n1Cc1nc(-c2ccccc2)no1)OCO3
CN(C)c1ccc(C(CNC(=O)c2cccc(C(F)(F)F)c2)N2CCCC2)cc1 (stereo unspecified)
COc1ccc(Cl)cc1Nc1cc(C)nc2nc(-c3ccccc3C)nn12
CCOC(=O)c1ccc(NS(=O)(=O)c2ccc3c(c2)OCCO3)cc1
CCCC(=O)Nc1cccc(-c2cn3cccnc3n2)c1
CCOC(=O)Cc1ccc(NC(=O)Nc2cc3c(cc2N2CCCCC2)n(C)c(=O)n3C)cc1
Cc1ccc(C)c(CNC(=O)c2ccc3c(c2)nc2n3CCC(C)C2)c1 (stereo unspecified)
CCCn1c(=N)c(C(=O)NCc2cccnc2)cc2c(=O)n3ccccc3nc21

Activity change, negative = inhibition, inactive:
O=C1c2oc3ccccc3c(=O)c2C(c2ccc(O)cc2)N1Cc1ccc2c(c1)OCO2 (stereo unspecified) 9.18%
CCOC(=O)C1CCCN(c2c(C(=O)c3ccc(OCC)cc3)cnc3ccccc23)C1 (stereo unspecified) -1.23%
Cc1cc(OCC(=O)Nc2c(C(=O)c3ccccc3)oc3ccccc23)cc(C)c1Cl 6.46%
O=C(CCC1N=C2c3ccccc3N=C(SCc3cccc(F)c3)N2C1=O)NCCc1ccccc1 (stereo unspecified) 0.58%
CCCCCCCCCCCCCC(=O)N[C@H](CO)[C@H](O)c1ccc([N+](=O)[O-])cc1 -1.95%
Cc1cccc(C)c1NC(=O)Cn1nnc(C(=O)Nc2c(C)cccc2C)c1N 1.19%
COC(=O)c1ccccc1NC(=O)c1ccc(-c2nc(COc3ccccc3)c(C)o2)cc1 6.1%
COc1ccc(Nc2cc(-c3cnc(N)nc3)nc(N3CCOCC3)n2)cn1 -15.1%
CN1C(=O)Cc2cc(S(=O)(=O)CCC(=O)Nc3ccc(Cl)c(C(F)(F)F)c3)ccc21 9.21%
CCOC(=O)c1c(C)[nH]c(CCC(=O)NCc2cccc(C)c2)c1C -4.11%
COc1ccc(NC(=O)c2oc3ccccc3c2NC(=O)Cc2coc3cc(C)ccc23)cc1 -1.04%
COc1ccc(C)cc1NC(=O)CCNC(=O)Cn1ccc2ccccc2c1=O 4.79%
O=C(CCC1N=C2c3ccccc3N=C(SCc3ccccc3F)N2C1=O)NCc1ccccc1 (stereo unspecified) 3.79%
CCCNC(=O)COCc1cc(-c2ccc(F)cc2)on1 -6.3%
Cn1c(-c2ccccc2)cnc1NCc1ccccc1O -4.24%
O=C(NCc1ccccc1Br)c1ccc2c(c1)nc1n2CCOC1 6.08%
COc1ccc2oc(-c3ccc(C)c(NC(=O)c4ccc5c(c4)OCCO5)c3)nc2c1 -17.3%
Cc1ccc(NC(=O)Cn2cc(S(=O)(=O)Cc3cccc(Cl)c3)c3ccccc32)cc1C -3.56%
COc1ccc(-n2ncc(C(=O)Nc3ccc4c(c3)OCO4)c2C2CCN(C(=O)OC(C)(C)C)CC2)cc1 38.7%
Cc1ccc(-n2ncc(C(=O)NCc3ccccn3)c2C2CCN(C(=O)OC(C)(C)C)CC2)c(C)c1 -4.69%
COc1ccc(CNC(=O)CCCn2c(=O)c3cccn3c3ccc(F)cc32)cc1OC -17.7%
Cc1ccccc1Cn1nnc2c(=O)[nH]c(C3CCN(C(=O)c4ccccc4Cl)CC3)nc21 3.4%
COc1ccc(NC(=O)C2CCN(C(=O)N3CCOc4ccccc43)CC2)cc1 0.561%
Cc1ccc2occ(CC(=O)Nc3ccc(S(=O)(=O)N4CCCC(C)C4)cc3)c2c1 (stereo unspecified) -23.6%
COc1ccc(NC(=O)CN2C(=O)CSc3ccc(S(=O)(=O)N(C)C)cc32)cc1Cl 26.2%
COCCCNC(=O)C(C)n1c2ccccc2c2cnn(C)c(=O)c21 (stereo unspecified) 34.4%
COc1ccc(NC(=O)N2CCN(S(=O)(=O)c3ccc4c(ccn4C)c3)CC2)cc1OC -2.14%
CCC1CN(C(=O)NCc2ccccc2)c2cc(C)ccc2O1 (stereo unspecified) 1.14%
COc1ccc(-c2noc(N3CCC(C(=O)Nc4ccc(OC)c(OC)c4)CC3)n2)cc1 -2.32%
CCCSc1nc(-c2ccc(OC)cc2)cc(-c2ccccc2OC)c1C#N 16.4%
COc1ccc(Br)cc1CNC(=O)c1cc(=O)[nH]c2ccc(S(=O)(=O)N3CCCCC3)cc12 8.27%
Cc1cccc(C)c1NC(=O)CN(Cc1ccc(Br)cc1)S(=O)(=O)c1ccccc1 -9.41%
Cc1ccc(CNc2ncnc3c2c(-c2ccccc2)cn3-c2ccccc2)cc1 3.08%
CN(C)[C@@H](CCOc1cccc2ccccc12)c1ccccc1 4.25%
CCOc1ccc(NC(=O)C2CCN(S(=O)(=O)c3c(C)noc3/C=C/c3c(C)cc(C)cc3C)CC2)cc1 10.9%
CCN(CC)c1ccc(NC(=O)c2sc3ccccc3c2Cl)cc1 -2.82%
COc1ccc(OC)c(-c2noc(N3CCN(c4cc(C)ccc4C)CC3)n2)c1 -6.01%
COc1ccc(OC)c(CCNC(=O)Cn2ccc3cc(S(=O)(=O)N4CCCCC4)ccc32)c1 8.21%
CCCC(CCC)C(=O)O 16.4%
CN(C)CCCC1(c2ccc(F)cc2)OCc2cc(C#N)ccc21 (stereo unspecified) 11%
COc1ccc(NC(=O)C(Cc2ccccc2)NS(=O)(=O)c2ccc3c(c2)CCN3C(C)=O)cc1 (stereo unspecified) 9.08%
CCOC(=O)c1cc(OC(=O)c2ccc(OC)cc2)n(-c2ccccc2)n1 -5.24%
Cc1ccc(N(C)S(=O)(=O)c2nnc(NC(=O)CC(C)C)s2)cc1 -14.3%
